From patent US20220340642A1 (Kyowa Kirin, published 2022)

T1: soluble recombinant of human LIGHT (His10, GS linker, Asp74-Val240)
T1 chain: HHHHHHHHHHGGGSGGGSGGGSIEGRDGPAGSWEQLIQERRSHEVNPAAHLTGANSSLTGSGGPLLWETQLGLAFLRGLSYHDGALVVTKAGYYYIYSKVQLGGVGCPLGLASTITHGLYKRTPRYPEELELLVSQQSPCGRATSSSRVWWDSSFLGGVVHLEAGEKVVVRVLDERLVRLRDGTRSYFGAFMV

T2: soluble recombinant of human TL1A (His6, GS linker, Leu72-Leu251) (UniProt O95150 72-251)
T2 chain: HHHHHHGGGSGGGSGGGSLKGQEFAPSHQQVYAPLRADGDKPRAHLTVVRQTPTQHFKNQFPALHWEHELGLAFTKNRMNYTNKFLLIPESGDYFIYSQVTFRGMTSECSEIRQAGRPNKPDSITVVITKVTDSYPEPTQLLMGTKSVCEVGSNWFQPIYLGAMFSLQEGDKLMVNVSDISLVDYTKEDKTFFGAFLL

T3: soluble recombinant of human FasL (His6, Pro134-Leu281) (UniProt P48023 134-281)
T3 chain: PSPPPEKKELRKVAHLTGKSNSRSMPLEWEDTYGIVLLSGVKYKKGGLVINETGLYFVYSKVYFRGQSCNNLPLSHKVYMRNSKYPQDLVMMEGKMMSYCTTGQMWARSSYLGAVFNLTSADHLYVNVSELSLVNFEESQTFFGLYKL

T4: FLAG-cynoLIGHT (FLAG tag, cynomolgus monkey LIGHT Asp74-Val240) (cynomolgus monkey)
T4 construct: SEC trimer fraction; also called soluble cynomolgus monkey LIGHT trimer
T4 chain: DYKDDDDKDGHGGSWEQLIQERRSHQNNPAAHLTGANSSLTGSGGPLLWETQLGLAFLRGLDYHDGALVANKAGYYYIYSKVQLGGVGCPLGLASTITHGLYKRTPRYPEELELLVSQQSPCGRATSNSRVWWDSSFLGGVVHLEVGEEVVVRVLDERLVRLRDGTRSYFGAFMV

T5: soluble recombinant of cynomolgus monkey TL1A (His6, GS linker, Leu72-Leu251) (cynomolgus monkey)
T5 construct: also called His6-cynoTL1A
T5 chain: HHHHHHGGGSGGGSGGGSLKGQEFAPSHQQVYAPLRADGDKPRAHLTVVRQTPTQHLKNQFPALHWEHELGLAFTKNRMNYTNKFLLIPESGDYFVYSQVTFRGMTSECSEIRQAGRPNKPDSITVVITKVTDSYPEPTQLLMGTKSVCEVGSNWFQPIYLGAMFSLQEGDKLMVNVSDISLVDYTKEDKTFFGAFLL

T6: soluble recombinant of cynomolgus monkey FasL (His6, Pro133-Leu280) (cynomolgus monkey, UniProt P63308 133-280)
T6 construct: also called His6-cynoFasL
T6 sequence: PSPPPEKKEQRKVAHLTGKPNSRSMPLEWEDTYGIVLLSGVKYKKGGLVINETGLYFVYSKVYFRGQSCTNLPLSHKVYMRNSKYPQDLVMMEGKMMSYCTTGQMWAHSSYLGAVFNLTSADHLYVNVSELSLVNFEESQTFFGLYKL

T7: soluble recombinant of human TL1A (His6, GS linker, Leu72-Leu251) (human, UniProt O95150 72-251)
T7 construct: also called His6-TL1A; hTL1A
T7 sequence: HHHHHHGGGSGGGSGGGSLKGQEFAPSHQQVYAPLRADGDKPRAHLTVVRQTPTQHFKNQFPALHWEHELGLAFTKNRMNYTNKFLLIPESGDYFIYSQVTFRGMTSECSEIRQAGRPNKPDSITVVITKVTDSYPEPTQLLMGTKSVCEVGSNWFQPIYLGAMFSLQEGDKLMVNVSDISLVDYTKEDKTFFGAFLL

T8: Human His6 Fas Ligand/TNFSF6 (Cell Signaling Technology, Inc.) (human, UniProt P48023 133-281)
T8 construct: Bought; confirmed as a trimer by SEC-MALS; also called recombinant human His6 Fas Ligand; soluble human FasL trimer
T8 sequence: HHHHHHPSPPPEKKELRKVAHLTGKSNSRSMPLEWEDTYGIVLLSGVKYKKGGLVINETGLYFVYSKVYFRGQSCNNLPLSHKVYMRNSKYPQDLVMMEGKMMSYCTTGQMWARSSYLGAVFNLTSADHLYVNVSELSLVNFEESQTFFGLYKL

T9: soluble recombinant of cynomolgus monkey FasL (His6, Pro133-Leu280) (UniProt P63308 133-280)
T9 chain: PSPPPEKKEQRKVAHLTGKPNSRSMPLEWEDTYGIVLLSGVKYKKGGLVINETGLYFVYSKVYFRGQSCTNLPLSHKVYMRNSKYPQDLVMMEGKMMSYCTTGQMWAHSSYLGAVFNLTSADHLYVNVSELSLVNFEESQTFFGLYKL

B1: chimera A-Fc (Eg1S N434A) (Fc fusion)
chain: ETFPPKYLHYDEETSHQLLCDKCPPGTYLKQHCTAKWKTVCAPCPPRHYTQFWNYLERCRYCNVLCGEREEEARACHATHNRACRCRTGFFAHAGFCLEHASCPPGAGVIAPGTPSQNTQCQPCPDGFFSNETSSKAPCRKHTNCSVFGLLLTQKGNATHDNICSGNSESTQK[omitted - human IgG1 Fc with changes]
B2: chimera A-Fc (Eg1S LALAGA) (Fc fusion)
chain: ETFPPKYLHYDEETSHQLLCDKCPPGTYLKQHCTAKWKTVCAPCPPRHYTQFWNYLERCRYCNVLCGEREEEARACHATHNRACRCRTGFFAHAGFCLEHASCPPGAGVIAPGTPSQNTQCQPCPDGFFSNETSSKAPCRKHTNCSVFGLLLTQKGNATHDNICSGNSESTQK[omitted - human IgG1 Fc with C220S L234A L235A G237A (EU numbers)]

How the values were obtained:
[1] = molecular target: T1, soluble recombinant of human LIGHT …; test: BIAcore SPR
Outline: (§1)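 Binding of each test molecule to soluble recombinant His-tagged human or cynomolgus monkey LIGHT, TL1A or FasL was analysed by surface plasmon resonance. Measurements used a BIAcore T-100 or T-200 instrument (GE Healthcare) in HBS-EP+ Buffer. The dissociation constant (Kd, nM) was derived from these measurements.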

[2] = molecular target: T2, soluble recombinant of human TL1A …; test: BIAcore SPR
Outline: as §1

[3] = molecular target: T3, soluble recombinant of human FasL …; test: BIAcore SPR
Outline: as §1

[4] = molecular target: T4, FLAG-cynoLIGHT (FLAG tag, cynomolgus …); test: SPR, binder captured on Protein A chip
Procedure: (§2) The binding activity to human and cynomolgus monkey DcR3 ligand trimers were analyzed by the SPR method. BIAcore T-100 (GE Healthcare) was used for measurement of the binding activities to human LIGHT, cynomolgus monkey LIGHT, human TL1A and cynomolgus monkey TL1A, and BIAcore T-200 (GE Healthcare) was used for measurement of the binding activities to human FasL and cynomolgus monkey FasL. As the buffer, HBS-EP+Buffer was used.
(§3) Various DcR3 variants were injected into Series S Sensor Chip Protein A (GE Healthcare) at 10 μL/min for 30 seconds and captured. Meanwhile, the buffer containing no protein was injected into a reference flow cell. Thereafter, as an analyte, each human DcR3 ligand trimer or each cynomolgus monkey DcR3 ligand trimer diluted to 0.08 to 20 nmol/L was injected. A human LIGHT trimer, a human TL1A trimer or each cynomolgus monkey DcR3 ligand trimer was injected at the flow rate of 30 μL/min for 2 minutes to monitor the binding, and subsequently the buffer was injected for 5 minutes to monitor dissociation. A human FasL trimer was injected at 30 μL/min for 1 minute to monitor the binding, and subsequently the buffer was injected for 3 minutes to monitor dissociation. Then, 3 mol/L magnesium chloride was injected at 30 μL/min for 1 minute to perform a regeneration reaction.

[5] = molecular target: T5, soluble recombinant of cynomolgus …; test: SPR, binder captured on Protein A chip
Procedure: as §2, §3

[6] = molecular target: T6, soluble recombinant of cynomolgus …; test: SPR, binder captured on Protein A chip
Procedure: as §2, §3

[7] = molecular target: T10, FLAG-LIGHT (FLAG tag, human LIGHT Asp74-Val240) (human, UniProt O43557 74-240); test: SPR, binder captured on Protein A chip
T10 construct: SEC trimer fraction; also called soluble recombinant FLAG-LIGHT trimer; soluble human LIGHT trimer
Procedure: as §2, §3

[8] = molecular target: T7, soluble recombinant of human TL1A …; test: SPR, binder captured on Protein A chip
Procedure: as §2, §3

[9] = molecular target: T8, Human His6 Fas Ligand/TNFSF6 (Cell …); test: SPR, binder captured on Protein A chip
Procedure: as §2, §3

[10] = molecular target: T9, soluble recombinant of cynomolgus …; test: BIAcore SPR
Outline: as §1

Binder	Kd [1]	Kd [2]	Kd [3]	binding result [4]	binding result [5]	binding result [6]	binding result [7]	binding result [8]	binding result [9]	Kd [10]
B1	0.2 nM	0.13 nM	0.82 nM	binds	binds	binds	binds	binds	binds	0.22 nM
B2	0.19 nM	0.12 nM	0.83 nM	binds	binds	binds	binds	binds	binds	0.21 nM
